# In all, about 150,000 compounds went through this assay and about 6,500 (4.3%) were called active. Inconclusive results, whose numbers are uncertain, are shown with a selection of clear calls. Calls follow the shape of the dose curve; as a rule, active = well fitted inhibition curve with a large enough effect (not every such curve was filed as active); inconclusive = small, poorly fitted or top-dose-only effect, or another doubt; inactive = no such curve, though single readings can be large or run the other way. No potency is given beside an inconclusive call; the fits are too rough.
# Target: 15-hydroxyprostaglandin dehydrogenase [NAD(+)] (Homo sapiens) (UniProt P15428)
# Sequence of UniProt P15428 (P15428 whole entry, looked up): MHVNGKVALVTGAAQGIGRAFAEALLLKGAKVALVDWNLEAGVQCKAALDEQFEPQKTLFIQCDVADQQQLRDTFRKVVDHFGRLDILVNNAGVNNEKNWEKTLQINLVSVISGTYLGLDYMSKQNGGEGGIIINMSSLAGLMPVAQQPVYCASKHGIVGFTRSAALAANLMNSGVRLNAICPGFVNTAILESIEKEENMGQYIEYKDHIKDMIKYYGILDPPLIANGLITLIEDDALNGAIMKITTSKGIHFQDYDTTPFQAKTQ
# Assay: qHTS Assay for Inhibitors of HPGD (15-Hydroxyprostaglandin Dehydrogenase)
# Conditions: purified HPGD, NADH fluorescence kinetic, PGE2 substrate; activity change, negative = inhibition: hits give low values
# How it was run: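 NADH formation kinetics: reaction with 30 uM PGE2 and 1 mM NAD+ (final), 20 nM enzyme, Tris-HCl pH 8 with Tween 20, after 15 min compound preincubation at room temperature. Fluorescence change, last versus first of five reads.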
# % is scaled to controls: 0 for no effect and ±100 for the full control effect; potency is read from the fitted curve at half-maximal effect; tags tell the direction and shape of the fitted curve.
Compound,Potency,"activity change, negative = inhibition"
COc1ccc2cc(CCNC(=O)c3cccs3)c(=O)[nH]c2c1,"inconclusive [inhibitor, partial curve]",–
O=c1n(Cc2ccccc2)c2cc(Cl)cnc2n1Cc1ccccc1,"inconclusive [inhibitor, partial curve]",–
COc1ccc(-n2c(SCC(N)=O)nnc2-c2ccc(NS(=O)(=O)c3ccc(C)cc3)cc2)cc1,active: 22.4 µM,–
Cc1n[nH]c(C)c1Cc1ccc(C(=O)O)cc1,–,inactive: 4.38%
O=c1c2c(nc3c(-c4ccc(Cl)cc4)c[nH]n13)CCCC2,"inconclusive [inhibitor, partial curve]",–
CCOC(=O)C1CCN(C(=O)c2cc3c(-c4ccc(OC)c(OC)c4)nn(C)c3s2)CC1,"inconclusive [inhibitor, partial curve]",–
COc1cccc(/C=N/N2C(=O)CSC2=S)c1O,active: 25.1 µM,–
CCOC(=O)c1c(-c2ccc(C)cc2C)csc1NC(=O)CSc1nnnn1C,"inconclusive [inhibitor, single point]",–
CC(Sc1nnnn1C)C(=O)Nc1ccc(Oc2ccccc2)cc1 (stereo not drawn),"inconclusive [inhibitor, partial curve, poor fit]",–
COc1ccc(OCC(=O)NC(=S)Nc2ccc3c4c(cccc24)CC3)cc1,"inconclusive [inhibitor, single point]",–
COc1ccc(C2C=C(C34CC5CC(CC(C5)C3)C4)NC(=S)N2)cc1OC (stereo not drawn),–,inactive: -7.56%
FC(F)(F)c1ccc(C2[C@H]3CN(Cc4cccnc4)[C@H](c4ccccc4)C34CC2(c2ccccc2)C4)cc1 (stereo partly drawn),–,inactive: -13%
[N-]=[N+]=N[C@@H]1[C@H](O)[C@H](CO)O[C@@H]1n1cnc2c(N)ncnc21,–,inactive: -1.8%
COc1ccc(Br)cc1C1CC(=O)N2CN(C)CSC2=C1C#N (stereo not drawn),active: 12.6 µM,–
O=c1[nH]c(N/N=C/c2ccc(O)cc2)nc2ccccc12,"inconclusive [inhibitor, partial curve]",–
CCOC(=O)c1c(NC(=S)Nc2ccccc2)sc2c1CC(C)(C)SC2,"inconclusive [inhibitor, partial curve]",–
c1ccn2c(CNc3ncnc4sccc34)nnc2c1,–,inactive: -4.33%
O=C(CCc1c[nH]c2ccccc12)NCC1CCCO1 (stereo not drawn),active: 14.1 µM,–
CC(C)OCCCNC(=O)c1c(N)n(/N=C/c2cccs2)c2nc3ccccc3nc12,"inconclusive [inhibitor, partial curve]",–
CCOC(=O)c1ccc2c(c1)sc(=NC(=O)c1ccco1)n2CCOC,"inconclusive [inhibitor, partial curve, poor fit]",–
O=C(c1cc(-c2cccs2)on1)N1CCCCC1,active: 1.78 µM,–
CC(C)NC(=O)COC(=O)c1cc(F)c(F)cc1Cl,"inconclusive [inhibitor, full curve, poor fit]",–
CCC1CCC2(CC1)NNC(=S)NN2,active: 10 µM,–
Cc1cccc(C2NC(=O)c3c(sc(C)c3C)N2)c1O (stereo not drawn),"inconclusive [inhibitor, partial curve]",–

Compound,Potency,"activity change, negative = inhibition"
CCOc1ccccc1C1CC(c2ccc(Br)cc2)Nc2nc(N)nn21 (stereo not drawn),"inconclusive [inhibitor, partial curve]",–
COc1ccc2ccccc2c1C1CC(=O)N2CN(C)CSC2=C1C#N (stereo not drawn),active: 6.31 µM,–
O=C(CSc1ncnc2nc[nH]c12)c1ccc2ccccc2c1,"inconclusive [inhibitor, partial curve]",–
CN1C(=O)/C(=C2\SC(N)=NC2=O)c2ccccc21,"inconclusive [inhibitor, single point]",–
S=c1[nH]nc(C2CCCCC2)n1/N=C/C=C/c1ccccc1,active: 17.8 µM,–
COC(=O)c1sc2nc[nH]c(=O)c2c1C,"inconclusive [inhibitor, single point]",–
O=C(/C=C/c1cccc([N+](=O)[O-])c1)NCCSCc1cccc(Cl)c1,"inconclusive [inhibitor, single point]",–
Cc1onc(-c2ccccc2)c1C(=O)Nc1sc2c(c1C#N)CCC(C)C2 (stereo not drawn),–,inactive: -10.2%
CCCCC1=CC2=C(c3ccco3)C(=O)C(C)(OC(=O)c3ccc(OC)cc3)C(=O)C2=CN1CCOC (stereo not drawn),–,inactive: 2.24%
CCOCCN1CCN(c2c(CC)c(C)nc3cc(-c4cc(OC)cc(OC)c4)nn23)CC1,"inconclusive [inhibitor, partial curve]",–
O=C(Nc1cccc(F)c1)N1CCCC2(CCN(C(=O)c3cnccn3)CC2)C1,–,inactive: -9.3%
COc1ccccc1CNC(=O)Cn1cccc1,active: 15.8 µM,–
CCn1nc(NC(=O)c2ccco2)c2cc3ccccc3nc21,"inconclusive [inhibitor, single point]",–
Oc1cccc2ccc(SSc3ccc4cccc(O)c4n3)nc12,active: 0.562 µM,–
Cc1ccc(S(=O)(=O)CCC(=O)NCc2ccco2)cc1,–,inactive: -7.86%
CC(=O)Nc1sc(N/N=C\c2ccco2)nc1-c1cccs1,active: 31.6 µM,–
CC1Cc2ccccc2N1C(=O)CN1C(=O)C(=O)N(Cc2ccccc2)C1=O (stereo not drawn),–,inactive: -21.1%
CN1CCc2cccc3c2C1Cc1ccc(O)c(O)c1-3 (stereo not drawn),active: 5.01 µM,–
CC(=O)Nc1ccc(C(=O)CSc2ncn(-c3ccccc3)n2)cc1,active: 12.6 µM,–
CCCn1c(C)nc2c(N(C)CCN(C)C)nc(C)nc21,–,inactive: 1.57%
CC(=O)N1CCN(S(=O)(=O)c2cccc(C(=O)Nc3nc4ccccc4[nH]3)c2)CC1,"inconclusive [inhibitor, single point]",–
COC(=O)CNC(c1ccccc1)c1cc(Br)ccc1NC(=O)CCN1CCOCC1 (stereo not drawn),"inconclusive [inhibitor, single point]",–
Cc1oc2c(CN3CCOCC3)c(O)ccc2c(=O)c1-c1ccccc1,"inconclusive [inhibitor, partial curve]",–
CCN(CC)C(=O)CSC1=C(C#N)C(c2cccs2)C=C(C)N1 (stereo not drawn),"inconclusive [inhibitor, single point]",–

# From PubChem BioAssay AID894 (National Center for Advancing Translational Sciences (NCATS), 2007)
